# In all, about 310,000 compounds went through this assay and about 2,200 (0.71%) showed an effect of 50% or more. The effect is printed as a negative number. This is one part of the list.
# Target: human ether-à-go-go-related gene (hERG) potassium channel (human, UniProt Q12809)
# Assay: primary screen, population patch clamp on CHO cells stably expressing hERG
# Sequence of human ether-à-go-go-related gene (hERG) potassium channel (Q12809 whole entry, looked up): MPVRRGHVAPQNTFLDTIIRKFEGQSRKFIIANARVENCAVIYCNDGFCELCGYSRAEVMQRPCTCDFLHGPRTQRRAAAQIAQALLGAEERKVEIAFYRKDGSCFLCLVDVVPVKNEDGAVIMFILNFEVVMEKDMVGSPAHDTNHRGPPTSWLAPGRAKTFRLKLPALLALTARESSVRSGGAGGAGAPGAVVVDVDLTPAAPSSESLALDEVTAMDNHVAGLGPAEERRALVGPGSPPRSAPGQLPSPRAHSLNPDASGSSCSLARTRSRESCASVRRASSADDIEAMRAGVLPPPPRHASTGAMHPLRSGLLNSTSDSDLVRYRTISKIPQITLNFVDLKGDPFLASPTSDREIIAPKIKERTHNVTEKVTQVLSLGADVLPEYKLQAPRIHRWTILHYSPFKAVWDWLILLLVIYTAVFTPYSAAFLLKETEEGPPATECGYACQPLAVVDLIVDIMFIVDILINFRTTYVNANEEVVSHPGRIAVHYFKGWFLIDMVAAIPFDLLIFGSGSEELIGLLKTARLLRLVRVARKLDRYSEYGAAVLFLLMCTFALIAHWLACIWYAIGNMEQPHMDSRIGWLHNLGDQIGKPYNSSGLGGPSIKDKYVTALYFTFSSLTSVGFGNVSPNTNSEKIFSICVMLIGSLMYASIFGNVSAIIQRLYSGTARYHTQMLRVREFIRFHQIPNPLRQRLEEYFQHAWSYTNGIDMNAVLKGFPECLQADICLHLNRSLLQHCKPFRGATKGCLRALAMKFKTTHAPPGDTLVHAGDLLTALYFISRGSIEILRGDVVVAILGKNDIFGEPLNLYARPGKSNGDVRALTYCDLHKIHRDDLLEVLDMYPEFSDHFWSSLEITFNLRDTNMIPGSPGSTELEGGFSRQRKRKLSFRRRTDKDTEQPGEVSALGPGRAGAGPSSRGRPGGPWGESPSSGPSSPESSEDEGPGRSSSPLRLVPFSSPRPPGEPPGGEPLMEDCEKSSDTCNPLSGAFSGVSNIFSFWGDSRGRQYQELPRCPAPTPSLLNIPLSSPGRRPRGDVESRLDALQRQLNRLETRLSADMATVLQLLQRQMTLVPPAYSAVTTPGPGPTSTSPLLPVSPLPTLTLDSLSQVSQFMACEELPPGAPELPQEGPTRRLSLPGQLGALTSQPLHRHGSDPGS
row,SMILES,"hERG current change (%, negative = inhibition) at 1uM"
1,CC(=O)c1c(C)nc2ccccc2c1N,9.49%
2,COc1ccc(C(=O)NCC(=O)OCc2csc(-c3ccccc3)n2)cc1,5.94%
3,COc1ccc(NC2=NCC(=O)N2c2ccccc2)c(OC)c1.Cl,15.5%
4,COc1ccc(S(=O)(=O)NCC(=O)N(CC(=O)NCc2ccccc2)Cc2ccco2)cc1,4.13%
5,COc1nc(SC)nc(Cl)c1Cc1ccc(OC(C)C)cc1,4.15%
6,COc1cc(CN2CCN(C(=O)c3cccc4ccccc34)CC2)cc(OC)c1O.O=C(O)C(=O)O,7.5%
7,CCOC(=O)N1CCC(NC(=O)CCC(=O)N2CC(C)Oc3ccc(C)cc32)CC1 (stereo not drawn),9.67%
8,O=C(NC1CCCCCC1)C1CC(=O)N(Cc2ccccc2)C1 (stereo not drawn),7.39%
9,Cn1ncc(C#N)c1/N=C/N1CCOCC1,8.44%
10,COCCOC(=O)c1c(C)oc2ccc(NS(=O)(=O)c3ccc(C)cc3)cc12,-2.54%
11,CCCS(=O)(=O)C(=C1Nc2ccccc2N1)S(=O)(=O)CCC,8.96%
12,CCOc1cccc(OCCCCN2CCCCC2)c1,-3.79%
13,O=S(=O)(NCc1ccccc1)NCc1ccc(Cl)cc1Cl,12.7%
14,O=C(N/N=C/c1ccco1)Nc1ccccc1,10.3%
15,Cl.Nc1ccn([C@H]2C[C@H](O)[C@@H](CO)O2)c(=O)n1,12.8%
16,C#C[C@]1(O)CCC2C3CCC4=C/C(=N/OCC(=O)NC(C)C(=O)NC(CCSC)C(=O)O)CC[C@]4(C)C3CC[C@@]21C (stereo partly drawn),14.4%
17,COc1cc(C(=O)NCCCCCCNC(=O)c2cc(OC)c(OC)c(OC)c2)cc(OC)c1OC,15.2%
18,CCC(Sc1ccc2nnc(-c3ccc(F)cc3)n2n1)C(=O)O (stereo not drawn),-7.62%
19,CCOc1ccc(S(=O)(=O)N2CCCC(C(=O)NCc3ccncc3)C2)cc1Cl (stereo not drawn),8.75%
20,CC1Cc2ccccc2N1C(=O)CSc1nn2c(=O)c(C(C)(C)C)nnc2s1 (stereo not drawn),7.86%
21,Nc1cccc(CN2CCCC2)c1,18%
22,CN(C(=O)c1ccccc1)c1ccccc1C(=O)NCCc1ccccc1,11.7%
23,Cc1[nH]c2ccccc2c1SCc1nnc(SCc2ccccc2)n1C,-3.14%

row,SMILES,"hERG current change (%, negative = inhibition) at 1uM"
1,Cc1occc1C(=O)N(Cc1nc(-c2ccccc2)no1)C(C)C,-1.44%
2,O=[N+]([O-])c1cc([As](=O)(O)c2ccc(O)c([N+](=O)[O-])c2)ccc1O,10.9%
3,CC1=NC2(CCCc3c2no[n+]3[O-])N(O)C1(C)C (stereo not drawn),11.3%
4,CCOc1ccc(S(=O)(=O)N(CC(=O)NC2CCCCC2C)Cc2ccco2)cc1 (stereo not drawn),0.208%
5,O=C(CCCCl)NC(=S)Nc1ccc(N2CCOCC2)cc1,11.1%
6,COc1cccc(C(=O)NC(=S)Nn2cnnc2)c1OC,7.89%
7,CN1C(=O)CC(N2CCN(c3ncccn3)CC2)C1=O (stereo not drawn),9.73%
8,CCCn1c(N)c(C(=O)COC(=O)CCNS(=O)(=O)c2ccccc2F)c(=O)[nH]c1=O,10.3%
9,CS(=O)(=O)N(CC(=O)N1CCCC1)c1ccc(OCc2ccccc2)cc1,2.42%
10,Cc1ccc(C)c(CSc2nnc([C@@H]3CCCN3)o2)c1.Cl,12.1%
11,Cc1nc2ccc(C(=O)O)cc2nc1C,25.1%
12,O=C(NCC(=O)N1CCCCCCC1)c1cccc([N+](=O)[O-])c1,10.8%
13,CSc1ncccc1C(=O)OCc1cccc([N+](=O)[O-])c1,-0.11%
14,Cc1ccc(S(=O)(=O)c2c(C)nn(C(C)(C)C)c2OC(=O)c2cccs2)cc1,-3.42%
15,O=c1nc(-c2ccccc2)n(-c2ccc(Cl)cc2)[nH]1,10.7%
16,O=C(CC(Nc1ccccc1Cl)C(=O)O)c1ccccc1 (stereo not drawn),9.92%
17,COc1ccc(N2C(=O)CSC2c2ccccc2)cc1 (stereo not drawn),10.8%
18,COc1ccc2oc(C(=O)NNC(=O)c3ccc(F)cc3)c(C)c2c1,22.5%
19,CC(C)(C)NC(=O)Cn1c(=O)oc2cc(S(=O)(=O)N3CCc4ccccc43)ccc21,13.7%
20,Cc1cccc(CCNC(=O)C2CCCN(S(=O)(=O)c3cnc[nH]3)C2)c1 (stereo not drawn),5.05%
21,COc1ccccc1NNC(=O)c1cccnc1Oc1ccccc1,11.3%
22,O=C(Nc1c2c(nn1-c1ccccc1)CS(=O)C2)c1ccc(Br)o1 (stereo not drawn),4.77%
23,Cc1cc(N2CCOCC2)nc(SCC(=O)OCc2ccccc2)n1,-2.46%

row,SMILES,"hERG current change (%, negative = inhibition) at 1uM"
1,O=C(OCc1nnc(-c2ccccc2)o1)c1ccc(-n2cnnn2)cc1,8.86%
2,COC(=O)N1CCc2c(sc(NC(=O)C3COc4ccccc4O3)c2C(N)=O)C1 (stereo not drawn),12.9%
3,CN1C(=S)N(c2cccnc2)C(=O)/C1=C\c1ccc(C(C)(C)C)cc1,11.6%
4,Cc1ccc(N2CCN(C(=O)N3CCOCC3)CC2)c(C)c1,8.6%
5,COc1ccc(/C=N/NC(=O)c2cccs2)c2ccccc12,6.17%
6,Cc1ccc2cc(C#N)c(N3CCCN(S(=O)(=O)c4ccccc4)CC3)nc2c1C,1.93%
7,COc1ccc(N2C(=O)C(Cl)=C(N3CCCC3)C2=O)cc1,13%
8,O=C1OCc2ccc(NC(=O)C3CCCCC3)cc21,5.27%
9,Cc1ccccc1-c1nnc(SCCC(=O)N2CCOCC2)o1,11.2%
10,O=C(O)/C=C\C(=O)O.c1cc(CN2CCCCC2)cc(OCCCNc2nc3ccccc3s2)c1,-10.8%
11,COc1ccccc1N(Cc1ccccc1)S(=O)(=O)c1cccc(C(=O)NCC2CCCO2)c1 (stereo not drawn),2.24%
12,Cc1ccc(C)c(Cn2c(=O)n(C)c(=O)c3sccc32)c1,11.8%
13,Cc1c(NC(=O)Nc2cccc(Cl)c2)c(=O)n(-c2ccccc2)n1C,9.11%
14,Cc1ccc(F)cc1NC(=O)CN1CCN(c2ccccn2)CC1,3.71%
15,CCOC(=O)C1=C(N)Oc2ccc3ccccc3c2C1c1cccc(O)c1 (stereo not drawn),10.9%
16,O=C(CN1CCN(S(=O)(=O)c2ccc(F)cc2)CC1)NCC1(N2CCOCC2)CCCCC1,3.2%
17,Cc1nnc(SCC(=O)NCCN2C(=O)CSC2=O)s1,6.04%
18,CC(=O)N1CCN(C(=O)Cn2c(=O)oc3ccccc32)CC1,4.5%
19,CN(C)c1ccc(/C=N/NC(=O)c2ccc(-n3cnnn3)cc2)cc1,7.21%
20,O=C1c2ccccc2S(=O)(=O)c2cc(C(=O)N3CCC(C(=O)N4CCCCC4)CC3)ccc21,12.7%
21,Cc1ccc(C(C(=O)NC2CCCC2)N(C(=O)c2csnn2)C2CCCC2)o1 (stereo not drawn),-5.39%
22,NNC(=O)COc1cccc2cccnc12,11.8%
23,O=C(c1ccc2c(c1)C(=O)N(c1ccc(Cl)cc1)C2=O)N1CCN(c2ccccn2)CC1,14.9%

row,SMILES,"hERG current change (%, negative = inhibition) at 1uM"
1,O=C(Nc1ccccc1)Nc1cccc2cccnc12,-0.516%
2,COc1ccc(NC(=O)N2c3ccccc3CC2C)cc1OC (stereo not drawn),-4.96%
3,COc1ccccc1C(=O)NCCN=C1NS(=O)(=O)c2ccccc21,5.64%
4,CCCCOc1ccc(C(=O)Nc2ccc(C)cc2[N+](=O)[O-])cc1,5.12%
5,CC(C)c1ccc([N+](=O)[O-])cc1S(=O)(=O)N1CCN(C)CC1,8.19%
6,CC(=O)c1c(C)nc(C)nc1NC(=O)C(C)C,8.35%
7,CC(=O)Nc1ccc(Nc2ncnc(N)c2[N+](=O)[O-])cc1,12.8%
8,Cc1ccc(NC(=O)COC(=O)/C=C/c2cccs2)c(C)c1,5.19%
9,COc1ccc(N2CCN(C(=O)Nc3cccc(C(F)(F)F)c3)CC2)cc1,-2.81%
10,CCOC(CCNC(=O)c1cn(-c2cccc(C)n2)cn1)OCC,4.12%
11,O=C(N/N=C/c1ccc(Br)s1)c1ccccc1[N+](=O)[O-],10.3%
12,N#CC[C@H](c1ccccc1)N1CCN(Cc2ccccc2)CCC1=O,9.18%
13,CCOc1ccc(Br)cc1CNc1ccc2c(c1)OCCO2,9.14%
14,CCOC(=O)N1CCN(c2cc(=O)n(-c3ccc(OC)cc3)c(=O)[nH]2)CC1,6.48%
15,Cc1cc(C)nc(SCC(=O)Nc2ccc(S(=O)(=O)Nc3onc(C)c3C)cc2)n1,3.6%
16,CCOc1cnc(-c2c(-c3ccccc3Cl)noc2C)o1,14%
17,Cc1ccc(NC(=O)COC(=O)/C=C/c2cccs2)cc1,1.83%
18,O=C(CCn1c(=O)oc2ccccc21)Nc1ccon1,16.6%
19,COc1cc(CC(=O)OCC(=O)Nc2ccc([N+](=O)[O-])cc2)cc(OC)c1OC,1.31%
20,CC1Cc2ccccc2N1C(=O)c1cc2sccc2n1Cc1ccccc1 (stereo not drawn),14.3%
21,CN(CC(=O)NC(=O)NCc1ccccc1)CC(=O)Nc1ccc(Cl)c(C(F)(F)F)c1,7.19%
